# Among all 310,000 compounds or so, about 2,200 (0.71%) showed an effect of 50% or more. Effects have a minus sign here. Some of the results follow.
# Target: human ether-à-go-go-related gene (hERG) potassium channel (human, UniProt Q12809)
# Assay: primary screen, population patch clamp on CHO cells stably expressing hERG
# Chain of human ether-à-go-go-related gene (hERG) potassium channel (Q12809 whole entry, looked up): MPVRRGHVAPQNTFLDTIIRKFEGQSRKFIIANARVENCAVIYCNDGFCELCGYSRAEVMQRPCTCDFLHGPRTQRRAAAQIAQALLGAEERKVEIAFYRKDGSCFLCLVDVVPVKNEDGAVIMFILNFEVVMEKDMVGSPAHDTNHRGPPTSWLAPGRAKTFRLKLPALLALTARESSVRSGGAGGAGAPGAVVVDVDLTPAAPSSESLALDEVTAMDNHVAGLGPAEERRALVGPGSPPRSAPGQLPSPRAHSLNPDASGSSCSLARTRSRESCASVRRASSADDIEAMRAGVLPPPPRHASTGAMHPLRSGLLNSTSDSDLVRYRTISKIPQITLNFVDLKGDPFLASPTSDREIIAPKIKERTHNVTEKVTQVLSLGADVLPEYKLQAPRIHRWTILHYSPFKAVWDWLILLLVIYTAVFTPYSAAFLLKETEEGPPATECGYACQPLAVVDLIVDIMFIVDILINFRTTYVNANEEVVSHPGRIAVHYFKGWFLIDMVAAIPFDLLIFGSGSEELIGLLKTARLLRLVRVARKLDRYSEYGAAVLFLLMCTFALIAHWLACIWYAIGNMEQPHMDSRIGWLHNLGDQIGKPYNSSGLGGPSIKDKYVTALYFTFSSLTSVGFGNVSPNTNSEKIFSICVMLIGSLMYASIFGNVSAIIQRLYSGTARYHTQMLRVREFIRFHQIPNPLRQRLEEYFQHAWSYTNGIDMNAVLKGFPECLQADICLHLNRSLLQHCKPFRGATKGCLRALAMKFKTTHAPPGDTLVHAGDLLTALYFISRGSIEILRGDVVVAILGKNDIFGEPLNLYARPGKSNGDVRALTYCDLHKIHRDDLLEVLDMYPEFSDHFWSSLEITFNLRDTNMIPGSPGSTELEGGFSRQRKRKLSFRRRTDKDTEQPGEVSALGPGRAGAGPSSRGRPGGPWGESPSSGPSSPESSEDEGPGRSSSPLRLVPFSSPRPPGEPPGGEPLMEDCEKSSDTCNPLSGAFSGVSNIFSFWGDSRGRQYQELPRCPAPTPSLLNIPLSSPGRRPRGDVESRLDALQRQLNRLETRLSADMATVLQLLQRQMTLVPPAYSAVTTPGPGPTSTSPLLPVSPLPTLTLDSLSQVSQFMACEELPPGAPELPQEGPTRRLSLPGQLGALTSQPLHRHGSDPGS
row,Compound,"hERG current change (%, negative = inhibition) at 1uM [%]"
1,Fc1ccc(-c2cnc3n2CCCCC3)cc1,10.4
2,COc1ccccc1NC(=O)COc1ccc(Br)cc1CO,-1.47
3,C/C(=N\NC(=O)c1c[nH]c2ccccc12)c1ccco1,14.3
4,O=C(CCN1C(=O)C2C3C=CC(C3)C2C1=O)Nc1c(F)cc(F)cc1Br (stereo not shown),10.8
5,CCOc1ccc(NS(=O)(=O)c2ccc(NC(=O)[C@@H]3CCCC[C@@H]3C(=O)O)cc2)cc1,4.82
6,C[C@H]1C[C@H]2[C@@H]3CCC4=CC(=O)C=C[C@]4(C)[C@@]3(F)[C@@H](O)C[C@]2(C)[C@@]1(O)C(=O)CO,0.193
7,CN(c1ccccc1)S(=O)(=O)c1ccc(Cl)c(C(=O)OCC(=O)NC2CCS(=O)(=O)C2)c1 (stereo not shown),7.14
8,CCOc1cc(/C=N/NC(=O)C2CCCC2)ccc1O,4.9
9,CCOC(=O)N1CCN(C(=O)c2csc3c2CCCCC3)CC1,15.7
10,COc1cccc(C(=O)Nc2ccc(C(=O)O)cc2)c1,8.76
11,Cc1cc(O)ccc1N1C(=O)c2cccc3cc([N+](=O)[O-])cc(c23)C1=O,11.3
12,Cc1cccc(NC(=S)N(CCN(C)C)C(C)c2cccnc2)c1 (stereo not shown),1.67
13,Cc1ccccc1C(=O)NC1CCN(CC(=O)Nc2c(C)cccc2C)CC1,8.55
14,O=C(NNC(=O)c1cc(OCC(F)(F)F)ccc1OCC(F)(F)F)c1ccc(Cl)c(Cl)c1,10.9
15,CC(CO)(CO)N=Cc1c(O)n(-c2cccc3ccccc23)c(=O)[nH]c1=O,12.7
16,O=C(CSc1nnc(CN2CCOCC2)n1-c1ccccc1)N1CCc2ccccc21,10.6
17,COc1ccccc1C(=O)NC(CCSC)C(=O)N1CCN(C/C=C/c2ccccc2)CC1 (stereo not shown),-42.1
18,CCN1C(=O)[C@H]2[C@@H](c3ccc(C)cc3)N3C(=O)N(c4ccccc4)C(=O)[C@@]3(Cc3ccccc3)[C@H]2C1=O,6.44
19,C1=C(CCNCc2ccccc2)CCCC1.Cl,12.4
20,Cc1ccc(CNc2nc3ccccc3n2C)cc1,-1.06
21,COc1ccc(NC(=O)C23CC4CC(C2)CC(n2cnc(Br)n2)(C4)C3)c(C)c1,5.85
22,CCC(=O)Nc1cc(C(=O)NCC2CCCN2CC)c(OC)cc1N(C)C (stereo not shown),-5.97

row,Compound,"hERG current change (%, negative = inhibition) at 1uM [%]"
1,COc1cc(NC(=O)COC(=O)CCc2cc(OC)c(OC)c(OC)c2)cc(OC)c1,9.48
2,CC(=O)Nc1ccc(OC/C=C(\C)Cl)cc1,12.6
3,CN(C)C(CNC(=O)c1cc(Br)ccc1Cl)c1ccco1 (stereo not shown),12.4
4,Cc1ccc(OC(F)F)c(NC(=O)Nc2ccc3c(c2)OCO3)c1,19.9
5,CN(Cc1ccccn1)C(=O)C1CCC(=O)N(Cc2cccc(F)c2)C1 (stereo not shown),8.55
6,COc1cccc(NC(=O)c2ccc(NC(=O)C(C)C)cc2)c1,6.71
7,O=C(Nc1ccccc1N1CCOCC1)c1cnccn1,6.5
8,Cc1cc(C(=O)CN2C(=O)CN(C)C2=O)c(C)n1-c1cccc(S(=O)(=O)N2CCOCC2)c1,-4.32
9,COc1cccc(/C=C/C(=O)OCC(=O)Nc2cc(C(F)(F)F)ccc2Cl)c1,8.68
10,CC(C(=O)c1ccccc1)n1c(N2CCOCC2)nc2c1c(=O)n(C)c(=O)n2C (stereo not shown),14.4
11,Cc1cc(C=O)c(C)n1C(C)C,5.56
12,COc1ccc(-n2cc(C(=O)Nc3cc([N+](=O)[O-])ccc3OC)c3ccccc3c2=O)cc1,7.23
13,COc1ccc(NC(=O)CN(C)S(=O)(=O)c2cnc[nH]2)cc1,16.5
14,COC(=O)c1ccc(CNC(=O)c2c3c(nc4ccccc24)CCN(Cc2ccccc2)C3)cc1,13.6
15,CN(C)S(=O)(=O)c1ccc(N2CCCC2)c(C(=O)NNC(=O)COc2ccc(Cl)cc2)c1,2
16,CC(=O)c1cc(C(=O)Nc2ccc3ccccc3c2)c(C)o1,9.57
17,CCc1nnc(NC(=O)C(CC)c2ccccc2)s1 (stereo not shown),13.7
18,O=S(=O)(NC1CC1)c1ccc(S(=O)(=O)N2CCCc3ccccc32)cc1,6.59
19,CN(CCCN1CCOCC1)C(=O)c1ccc2nc(Cc3cccc(Cl)c3)oc2c1,8.09
20,Cc1ccc2c(CN3CCN(C(=O)c4ccco4)CC3)cc(=O)oc2c1C,-17.1
21,CCSc1nnc(NC(=O)c2csc3c2CCC(C)C3)s1 (stereo not shown),-3.17
22,CCN(CC(=O)Nc1ccc2c(c1)OCCO2)Cc1cc(=O)oc2c(C)c(C)ccc12,-16.9

row,Compound,"hERG current change (%, negative = inhibition) at 1uM [%]"
1,N#C/C(=C/c1ccc(C(=O)O)cc1)C(=O)Nc1ccccc1,20.4
2,CC(/C=N/n1c(-c2ccccn2)n[nH]c1=S)=C\c1ccccc1,6.7
3,CN(C(=O)COC(=O)c1cc([N+](=O)[O-])ccc1N1CCCC1)C1CCS(=O)(=O)C1 (stereo not shown),8.44
4,N#Cc1ccc(/C=C\c2nccc3c2[nH]c2ccccc23)cc1,0.614
5,Cc1c(N2C(=O)C3C4C=CC(C5CC45)C3C2=O)c(=O)n(-c2ccccc2)n1C (stereo not shown),4.96
6,CC(C)c1ccc(N(C(=O)c2cc3ccccc3oc2=O)C2C=CS(=O)(=O)C2)cc1 (stereo not shown),8.05
7,CCN1CCN(C(c2cc3cccc(C)c3[nH]c2=O)c2nnnn2Cc2ccccc2)CC1 (stereo not shown),1.71
8,Cn1c(SCC(=O)NC2CCCCC2)nnc1-c1ccccc1F,14.1
9,CC1CCN(C(=O)c2ccc(S(=O)(=O)N3CCOCC3)cc2)CC1,12.3
10,CCCC(=O)Nc1cc(Cl)ccc1N1CCN(C(=O)CC)CC1,3.29
11,C=CCNC(=O)c1c(N)n(Cc2ccco2)c2nc3ccccc3nc12,10.8
12,O=C(CCN1C(=O)c2ccccc2C1=O)NC1=NCCS1,24.5
13,Cc1cccc(C)c1OCc1cc(C(=O)NCc2cn(C)nc2C)no1,1.56
14,COc1cccc(N2CCN(C(=O)c3cc4c(=O)n(Cc5ccccc5)ccc4nc3C)CC2)c1,-5
15,Cn1c(=O)c(Sc2ccccc2)c(O)c2ccccc21,13.7
16,CCOC(=O)C1CC(c2ccccc2)=NNC1=O (stereo not shown),-10.8
17,Cc1cc(/C=N/NC(=O)c2cccc([N+](=O)[O-])c2)c(C)n1-c1ccc(Cl)cc1Cl,8.29
18,Cc1cc(C)cc(C(=O)NC(CC(N)=O)c2ccc(NCCN3CCCC3)c([N+](=O)[O-])c2)c1 (stereo not shown),9.15
19,Cc1ccc(-c2csc3nc4ccc(C(=O)NCCO)cc4c(=O)n23)cc1,8.63
20,O=C(N/N=C/c1ccc(OCc2ccccc2)cc1)c1ccncc1,9.85
21,COC(=O)c1n[nH]n(-c2cc(Cl)cc(Cl)c2)c1=O,13.8
22,Cc1nnc(NC(=O)CSc2nnc(Cc3cccn3C)n2-c2cccc(C(F)(F)F)c2)s1,10.4

row,Compound,"hERG current change (%, negative = inhibition) at 1uM [%]"
1,CCOc1cc(CNCCc2ccc(S(N)(=O)=O)cc2)ccc1OCc1ccc(Cl)cc1.Cl,-11.9
2,Cc1cc(C)cc(C(=O)NC(CC(N)=O)c2ccc(N3CCN(c4ccccn4)CC3)c([N+](=O)[O-])c2)c1 (stereo not shown),12.9
3,O=C(c1cc2c(=O)n3ccccc3nc2s1)N1CCN(Cc2ccccc2)CC1,-2.14
4,COc1ccc(/C=C(/NC(=O)c2ccccc2)C(=O)N2CCOCC2)cc1OC,19.1
5,Cc1ccc2cc3cc(C(=O)N4CCN(Cc5ccccc5)CC4)sc3nc2c1,14.8
6,COc1ccc(CNc2nc(NCc3ccc(OC)cc3)n(S(C)(=O)=O)n2)cc1,-1.52
7,COc1cc(C(=O)NCCN2CCOCC2)cc(OC)c1OC,15.7
8,CCC(C)NC(=O)CSc1c2c(nc3ccccc13)CCCC2 (stereo not shown),1.42
9,CCn1c(C)cc(C(=O)CSc2nnnn2C2CCCC2)c1C,-9.53
10,CN(C)c1cc[n+](CC(=O)c2ccc(-c3ccccc3)cc2)cc1.[Cl-],13.1
11,CC(=O)Nc1ccc(S(=O)(=O)N2CCN(C(=O)c3ncoc3-c3cccc(C)c3)CC2)cc1,10.2
12,CCC(CC)c1nnc(NC(=O)CN2C(=O)C3C4C=CC(C4)C3C2=O)s1 (stereo not shown),4.46
13,O=C(CN1CCN(c2cccc(Cl)c2)CC1)Nc1ccc([N+](=O)[O-])cc1C(=O)Nc1ccccc1F,11.4
14,CCCCC(=O)NCCc1cc2c(OC)ccc(OC)c2[nH]c1=O,11.9
15,C/C(=N\NC(=O)CNc1cccc(C(F)(F)F)c1)c1ccc(Br)cc1,14.2
16,COc1cccc(/C=N/Nc2ccc(C(=O)O)cc2)c1O,8.08
17,CCn1c(SCC(=O)NC2CC2)nnc1-c1cccc(OC)c1,17.5
18,Cc1ccc(NP(=O)(c2ccc(N(C)C)cc2NC(=O)c2cccs2)N2CCOCC2)cc1 (stereo not shown),3.35
19,O=C(COC(=O)c1ccc2[nH]c3c(c2c1)CCCC3)Nc1ccccc1,16.7

# — PMC4336329 (PLoS ONE, 2015)
